This is one part of the list. One pool of 16,384 single-stranded DNAs met each Rep nickase domain in vitro (3 µM enzyme, 1 h, 37 °C); shown is the middle of each 90-letter strand. The score is log2 (uncut reads / reads without enzyme); uncut sequences lie near 0, cut ones below; no hit call is given. Because reads are shares of a total, they shift together; values above 0 arise when much of the pool is cut.
Tests used:
Test in all cases: uncleaved DNA left, log2 of reads against the no-enzyme library (log2 ratio); higher = less cleavage (more negative = more Rep cleavage of the k-mer); sequences stand for … in CTCGTCCG…ACCGGAGA
[1] = tested on: T1, Rep nickase domain of Muscovy duck circovirus
T1 sequence (residues 1-111 of Rep, tag left off): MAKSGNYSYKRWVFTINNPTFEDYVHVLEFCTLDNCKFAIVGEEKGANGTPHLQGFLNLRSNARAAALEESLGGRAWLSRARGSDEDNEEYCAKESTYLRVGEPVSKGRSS
Method: (§1)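 A pool of 90-nt single-stranded DNAs with seven random bases just before the constant AC of the nick site (name = the seven bases) was cut by 3 µM recombinant His6-SUMO-tagged Rep nickase domain (300 nM DNA, 50 mM HEPES pH 8.0, 50 mM NaCl, 1 mM MnCl2, 1 h, 37 °C, three replicates). Uncut DNA was amplified and sequenced.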

[2] = tested on: T2, Rep nickase domain of banana bunchy top virus
T2 sequence (residues 1-94 of Rep, tag left off): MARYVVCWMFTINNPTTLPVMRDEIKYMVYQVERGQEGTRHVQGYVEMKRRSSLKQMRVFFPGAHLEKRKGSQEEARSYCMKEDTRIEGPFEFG
Method: as §1

[3] = tested on: T3, Rep nickase domain of cabbage leaf curl virus
T3 sequence (residues 1-116 of Rep, tag left off): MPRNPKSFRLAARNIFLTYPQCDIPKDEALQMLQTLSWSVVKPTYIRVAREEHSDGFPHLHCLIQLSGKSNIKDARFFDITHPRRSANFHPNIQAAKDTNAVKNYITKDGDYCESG
Method: as §1

[4] = tested on: T4, Rep nickase domain of chickpea chlorotic dwarf virus
T4 sequence (residues 1-124 of Rep, tag left off): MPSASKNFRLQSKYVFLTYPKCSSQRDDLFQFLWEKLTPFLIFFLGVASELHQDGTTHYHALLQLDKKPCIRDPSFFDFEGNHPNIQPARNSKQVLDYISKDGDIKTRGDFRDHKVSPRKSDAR
Method: as §1

[5] = tested on: T5, Rep nickase domain of faba bean necrotic yellows virus
T5 sequence (residues 1-98 of Rep, tag left off): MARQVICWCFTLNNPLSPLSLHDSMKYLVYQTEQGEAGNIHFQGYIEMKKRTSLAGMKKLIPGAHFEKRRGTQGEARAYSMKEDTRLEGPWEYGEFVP
Method: as §1

[6] = tested on: T6, Rep nickase domain of maize striate mosaic virus
T6 sequence (residues 1-117 of Rep, tag left off): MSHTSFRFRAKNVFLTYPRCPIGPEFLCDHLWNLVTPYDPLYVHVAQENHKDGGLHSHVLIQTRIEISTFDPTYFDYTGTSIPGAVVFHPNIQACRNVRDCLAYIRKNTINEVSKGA
Method: as §1

[7] = tested on: T7, Rep nickase domain of porcine circovirus 2
T7 sequence (residues 2-116 of Rep, tag left off): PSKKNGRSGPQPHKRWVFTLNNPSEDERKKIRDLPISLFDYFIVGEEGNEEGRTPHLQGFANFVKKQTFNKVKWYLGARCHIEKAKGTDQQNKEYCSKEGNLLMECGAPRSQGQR
Method: as §1

[8] = tested on: T8, Rep nickase domain of tomato golden mosaic virus
T8 sequence (residues 1-124 of Rep, tag left off): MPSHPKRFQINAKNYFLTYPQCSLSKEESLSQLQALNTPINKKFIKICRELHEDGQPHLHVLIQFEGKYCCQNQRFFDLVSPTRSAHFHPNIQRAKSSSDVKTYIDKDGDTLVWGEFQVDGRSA
Method: as §1

[9] = tested on: T9, Rep nickase domain of tomato yellow leaf curl virus
T9 sequence (residues 1-136 of Rep, tag left off): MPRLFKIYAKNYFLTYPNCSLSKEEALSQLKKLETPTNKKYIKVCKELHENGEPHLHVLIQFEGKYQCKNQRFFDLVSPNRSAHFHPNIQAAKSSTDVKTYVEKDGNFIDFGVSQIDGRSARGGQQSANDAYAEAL
Method: as §1

[10] = tested on: T10, Rep nickase domain of wheat dwarf virus
T10 sequence (residues 1-137 of Rep, tag left off): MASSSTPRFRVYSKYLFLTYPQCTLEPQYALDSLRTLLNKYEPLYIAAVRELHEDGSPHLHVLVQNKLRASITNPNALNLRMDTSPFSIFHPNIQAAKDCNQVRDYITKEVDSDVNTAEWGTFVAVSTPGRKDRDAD
Method: as §1

Sequence	uncleaved DNA left (log2) [1]	uncleaved DNA left (log2) [2]	uncleaved DNA left (log2) [3]	uncleaved DNA left (log2) [4]	uncleaved DNA left (log2) [5]	uncleaved DNA left (log2) [6]	uncleaved DNA left (log2) [7]	uncleaved DNA left (log2) [8]	uncleaved DNA left (log2) [9]	uncleaved DNA left (log2) [10]
TGGTTGT	-0.126	-0.123	-0.00853	-0.096	0.00859	-0.421	-0.904	-0.115	-0.00446	-0.0265
CTCCGGG	-0.0708	0.0407	0.392	0.563	-0.0425	0.0672	0.118	0.0403	0.125	0.065
GGACAAA	0.1	0.112	0.874	2.05	0.103	2.26	0.281	-0.018	0.0982	0.214
TCGGGCA	0.124	0.0865	0.532	0.917	-0.0221	1.14	-0.606	0.0349	-0.0829	-0.0135
CACGGTA	0.0245	-0.165	0.0594	-0.454	-0.184	0.015	-0.06	-0.0743	-0.149	-0.0502
CTTGTAT	-0.00943	-0.156	-0.155	-0.669	0.00943	-0.557	-0.254	-0.0784	0.0252	0.054
CACCTAC	-0.296	-0.251	-0.488	-2.65	-0.0941	-0.988	-0.403	-0.226	-0.318	-0.303
AACTTTG	-0.162	0.00445	-0.502	-0.773	-0.046	-1.33	-0.161	-0.0935	-0.00206	-0.164
GCCCCAA	0.091	0.184	0.288	0.603	0.0778	0.466	0.127	0.101	0.076	0.237
CAAGCAA	-0.175	0.0678	-0.0159	0.0963	0.0125	-0.323	0.114	-0.00452	-0.175	0.0377
AATGAGT	0.0346	-0.0208	-0.267	-0.541	0.0503	-0.668	-0.148	-0.113	-0.0332	-0.0784
GTTAAGA	-0.109	0.0938	0.265	0.73	-0.046	1.46	0.118	0.079	-0.0203	0.0467
TTGCATA	0.0477	0.127	-0.339	-0.845	0.0698	-1.07	0.0862	0.0398	0.14	0.0106
TGACATT	0.222	0.185	0.889	1.98	0.158	2.31	0.126	-0.0123	0.135	0.274
CCCCTGC	-0.18	-0.129	-0.475	-0.752	-0.0915	-1.04	-0.136	-0.105	-0.0634	-0.101
